# Experimental data from paper PMC6919601, “Identification of Plasmodium dipeptidyl aminopeptidase allosteric inhibitors by high throughput screening” (PLoS ONE, 2019).
# Out of some 110,000 compounds screened, about 230 (0.21%) showed an effect of 50% or more. The list shows a part of the results.
# Target: DPAP1 (Plasmodium falciparum, UniProt Q8IIJ9)
# Test: primary screen, percent inhibition; read by cleavage of a fluorogenic dipeptide substrate; higher = more effect of the substance
# Design: species or system P. falciparum D10 trophozoite lysates; single well
# 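Note: 30 min substrate incubation versus DMSO and 10 µM JCP410 controls.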
# DPAP1, sequence (Q8IIJ9 whole entry, looked up): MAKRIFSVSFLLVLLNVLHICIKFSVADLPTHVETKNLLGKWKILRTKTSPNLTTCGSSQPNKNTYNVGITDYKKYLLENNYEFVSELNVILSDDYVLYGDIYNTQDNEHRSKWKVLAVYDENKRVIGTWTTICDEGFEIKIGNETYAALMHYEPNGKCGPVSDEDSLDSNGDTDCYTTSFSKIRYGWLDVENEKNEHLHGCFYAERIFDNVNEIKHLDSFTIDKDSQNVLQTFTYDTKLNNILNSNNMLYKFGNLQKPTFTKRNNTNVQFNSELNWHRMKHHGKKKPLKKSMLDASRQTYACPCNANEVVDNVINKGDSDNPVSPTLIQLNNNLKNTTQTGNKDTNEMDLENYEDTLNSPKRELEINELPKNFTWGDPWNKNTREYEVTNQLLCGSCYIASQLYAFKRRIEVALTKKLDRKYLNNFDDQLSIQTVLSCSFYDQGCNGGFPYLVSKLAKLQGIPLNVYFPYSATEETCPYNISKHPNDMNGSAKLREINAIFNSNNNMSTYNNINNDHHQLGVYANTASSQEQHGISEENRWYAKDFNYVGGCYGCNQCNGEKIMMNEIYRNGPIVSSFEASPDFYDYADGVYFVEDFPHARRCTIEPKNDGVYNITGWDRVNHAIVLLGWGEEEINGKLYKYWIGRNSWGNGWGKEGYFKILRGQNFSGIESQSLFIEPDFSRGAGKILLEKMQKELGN
row,Structure (SMILES),% Inhibition @ 10 uM [%]
1,COc1ccc2nc(SC(=O)c3ccccc3Cl)nc(C)c2c1,30.9
2,CC(Cc1ccc(F)cc1)N1CCN(C=O)CC1 (stereo not shown),-0.0648
3,COc1cc(/C=C(\C#N)c2nc3ccccc3s2)cc(OC)c1OC,-1.93
4,CCN1CCC(N2CCCC3CCCCC32)CC1 (stereo not shown),-1.81
5,CN(Cc1ccccc1)Cn1c(=S)oc2ccccc21,7.66
6,Cc1ccc(NC(=O)c2ccc([N+](=O)[O-])cc2Cl)c([N+](=O)[O-])c1,-3.26
7,Cc1ccccc1-c1nc(CN2CCCC(C(=O)NCCCSC3CCCCC3)C2)c(C)o1 (stereo not shown),0.689
8,COc1ccc(C(=O)N2N=C3CC(C)(C)OCC3C2c2ccccc2)cc1 (stereo not shown),-3.28
9,Cc1nc2ccn(Cc3ccco3)c(=O)c2cc1C(=O)NCCCc1ccccc1,1.28
10,CCOC(=O)C1(C2(O)C(=O)c3ccccc3C2=O)CCCC1=O (stereo not shown),24.4
11,CC(=O)Nc1ccc(CN2CCC3(C=Cc4ccccc43)CC2)cc1,1.74
12,COCCn1c(N2CCN(CCO)CC2)nc2c1c(=O)[nH]c(=O)n2C,0.635
13,CCCCN(CCCC)C(=O)C1CCN(S(=O)(=O)c2c(C)noc2/C=C/c2cccs2)CC1,0.458
14,CCOC(=O)C1=C(CN2CCN(CC)CC2)NC(=O)NC1c1ccc(OC)cc1 (stereo not shown),-4.46
15,O=C(CCSCCC(=O)Nc1ccc2c(c1)OCO2)Nc1ccc2c(c1)OCO2,-1.42
16,COc1ccccc1CNC(=O)c1ccc(NC(=O)C(C)C)cc1,-4.02
17,COCCN1C(=O)c2ccccc2C(C(=O)NCc2ccc3c(c2)OCO3)C1c1cccs1 (stereo not shown),1.36
18,CCOC(=O)c1cnn2c(C)cc(-c3ccc(F)cc3)nc12,-3.33
19,CN1CCC(NCC(c2ccccc2)c2ccccc2)CC1,3.68
20,O=C(NCc1cccnc1)c1nn2c(c1Cl)NC(c1ccccc1)CC2C(F)(F)F (stereo not shown),4.86
21,C=C(C)CN(CC)Cc1ccc(C(=O)O)cc1,-4.75
22,C[C@H](NC(=O)CCc1ccccc1)c1ccccc1,4.22

row,Structure (SMILES),% Inhibition @ 10 uM [%]
1,CCO/C(O)=C1/C(C)=Nc2ncnn2C1c1sccc1C (stereo not shown),0.279
2,CC(=O)N1C(=O)/C(=C\c2cccnc2)N=C1S,-2.15
3,CC(=O)N(C)c1ccc(NC(=O)COc2ccc(Cl)cc2)cc1,9.41
4,COc1ccc(OCc2nc(-c3ccccc3C)no2)cc1,-6.71
5,O=C(NCCCCNC(=O)c1ccc(Br)cc1)c1ccc(Br)cc1,15.8
6,CC1(C)CC(=O)c2c(O)cc(=O)n(-c3ccc(Cl)cc3)c2C1,-6.08
7,CC(C)(C)c1ccc(C2C(C(=O)c3cc4ccccc4o3)=C(O)C(=O)N2CCCn2ccnc2)cc1 (stereo not shown),-3.69
8,Cc1c(C(=O)Nc2ccccc2)cnn1-c1ccccc1,3.53
9,O=C(Nc1cccc2ccccc12)C1CCCCN1S(=O)(=O)c1ccccc1 (stereo not shown),2.65
10,Cc1cccc(-c2nc(CSCC(=O)N3CCOCC3)c(C)o2)c1,-6.64
11,Cc1ccc(NC(=O)[C@@H]2C3C=CC(O3)[C@@H]2C(=O)O)cc1 (stereo partly shown),9.94
12,CCc1ccc(-c2nnc(O)c3ccccc23)cc1,3.15
13,CCO/C(O)=C1\C(CC)=NC2=C(C(=O)CCC2)C1c1ccc(O)c(OC)c1 (stereo not shown),0.736
14,O=C(CC1CCCC1)NCc1cn2ccsc2n1,4.14
15,CCC(C)NC(=O)C1CCCCN1S(=O)(=O)c1ccc(C(C)(C)C)cc1 (stereo not shown),-0.972
16,O=C(NCC1CCCO1)C1CCN(Cc2cnn(-c3ccccc3)c2-n2cccc2)CC1 (stereo not shown),2.27
17,COc1ccc(-c2cnc(NCc3ccc(C(F)(F)F)cc3)n2C)cc1,-2.91
18,C=CCO/C(O)=C1\C(C)=Nc2nnnn2C1c1ccccc1OCC (stereo not shown),-3.37
19,Nc1c(C(=O)c2ccccc2)sc2nccc(Nc3ccccc3)c12,0.878
20,Cc1ccc(F)cc1NC(=O)c1sc2nc3c(cc2c1N)CCC3,-1.24
21,Cc1cccc(/C=C\c2nc(O)c3ccccc3n2)c1,-7.83
22,Cc1ccc(C(=O)Nc2cccc(Cl)c2C)o1,-10.8

row,Structure (SMILES),% Inhibition @ 10 uM [%]
1,COc1cccc(C2C3=C(O)CCCC3=NC(C)=C2C(=O)Nc2ccc(Br)cn2)c1 (stereo not shown),1.4
2,CC(C)C[C@H](NC(=O)[C@@H]1CCCN1C(=O)OC(C)(C)C)C(=O)NCC#N,0.174
3,Cc1ccc(C(=O)N/C(=C\c2cccs2)C(=O)N2CCCC(C)C2)cc1C (stereo not shown),0.777
4,O=C(CSc1nc2ccccc2o1)Nc1ccc(Br)cn1,0.0719
5,CCn1c(=N)n(CC(=O)c2ccc(Cl)cc2)c2ccccc21,5.63
6,COc1ccc(-c2ccc3c(N)c(C(=O)NCc4ccc(F)cc4)sc3n2)cc1,2.76
7,O=c1c2ccccc2nc(CSc2nnnn2-c2ccccc2)n1-c1ccccc1,4.73
8,Cc1ccc2nc(Cl)cc(SCC(=O)NCc3ccc4c(c3)OCO4)c2c1,2.73
9,N=C(N)/N=C(\N)N1N=CCC1c1ccccc1 (stereo not shown),-6.23
10,CCc1nnc(NC(=O)CSc2nc3c(C)cccc3[nH]2)s1,0.611
11,CCOC(=O)c1c(NC(=O)c2ccccc2Br)sc2c1CCCC2,2.47
12,Cc1ccccc1OCC(=O)Nc1ccc(Br)cc1,2.5
13,O=C(NCc1ccc2c(c1)OCO2)c1cncc(Br)c1,-5.54
14,Cc1cccc(NC(=O)CN2C(=O)S/C(=C\c3ccc(N4CCOCC4)cc3C)C2=O)c1,0.528
15,CC(C)Oc1ccc(CNC(=O)CCCn2ncn3c(cc4occc43)c2=O)cc1,-3.79
16,O=C1NCC2=C1C(c1ccccc1)Nc1ccccc1N2 (stereo not shown),3.18
17,COc1ccc2ccccc2c1C1C(C(C)=O)=C(C)N=c2s/c(=C\c3cc(C)[nH]c3C)c(=O)n21 (stereo not shown),-4.49
18,CC1=[N+]([O-])C(C)(C)CC(C)c2ccccc21 (stereo not shown),3.16
19,Cc1nn(-c2ccccn2)c2c1C(O)=C(/C=N/c1cccc(C(F)(F)F)c1)CC2,-1.98
20,CC(=O)Nc1cccc(NC(=O)c2c(C(=O)O)cccc2[N+](=O)[O-])c1,4.81
